Laboratory results taken from PubChem BioAssay AID588855 (National Center for Advancing Translational Sciences (NCATS), 2011).
Among all 410,000 compounds or so, about 5,000 (1.2%) were called active. Inconclusive means that the source gave no clear call. Such entries were picked first, then a sample of the others. Calls follow the shape of the dose curve; as a rule, active = well fitted inhibition curve with a large enough effect; inconclusive = small, poorly fitted or top-dose-only effect; inactive = no such curve, though single readings can be large or run the other way. Where the call is inconclusive, the potency comes from a doubtful curve fit.

Assay: qHTS for Inhibitors of TGF-b; also: nearly all actives have a fitted effect of over 65% in size
Conditions: HepG2 CAGA-GFP TGF-b/SMAD3 reporter, GFP fluorescence, 18 h, TGF-beta stimulated, 500 pg/mL final; series mostly up to 46.1 µM; activity, negative = inhibition: at the top concentration
In short: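 Cell-based qHTS in HEPG2 carrying a CAGA-GFP Smad reporter; compounds added before 500 pg/mL final TGF-beta, 18 h incubation at 37 degrees C, GFP fluorescence quantified per cell by imaging cytometry.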
% is scaled to controls: 0 for no effect and ±100 for the full control effect; potency is read from the fitted curve at half-maximal effect; tags tell the direction and shape of the fitted curve.

Compound	Potency	activity, negative = inhibition
CC(C)NS(=O)(=O)c1ccc(OCC(=O)N2CCN(c3cccc(Cl)c3)CC2)cc1	inconclusive: 35.5 µM [inhibitor, single point]	
COc1ccc(/C=C/C(=O)C2(O)CCCCC2)cc1OC	inconclusive: 12.6 µM [inhibitor, single point]	
O=C(CSc1nnnn1-c1ccc2c(c1)CCC2)Nc1ccc2c(c1)OCCO2	inconclusive: 35.5 µM [inhibitor, single point]	
CCOC(=O)COc1ccccc1/C=N/O		inactive: -9.39%
COc1ccc(NC(=O)c2sc(=O)n(Cc3ccc4ccccc4c3)c2C)cc1OC	inconclusive: 20 µM [inhibitor, single point]	
COc1ccccc1N1CCN(C(=O)CSc2nc(C)c(Cc3ccccc3)c(=O)[nH]2)CC1	inconclusive: 0.112 µM [inhibitor, full curve, poor fit]	
CCN(CC)c1ccc([N+](=O)[O-])cc1C(=O)N1CCOCC1		inactive: -17.4%
Cc1ccccc1NC(=O)c1cc(N)ccc1N1CCCCC1	inconclusive: 14.1 µM [inhibitor, single point]	
CNC(=O)c1c(NC(=O)CS(=O)(=O)c2ccccc2)sc(C)c1C		inactive: -8.02%
Clc1ccc2nc(-c3cccc(Br)c3)c(Cc3ccsc3)n2c1	active: 10 µM	
Cc1sc(NC(=S)NC(=O)CCc2ccccc2)c(C(N)=O)c1C	inconclusive: 0.282 µM [inhibitor, full curve, poor fit]	
CN1CCN(CCCNC(=O)c2ccc3c(Cl)c4c(nc3c2)CCCC4)CC1	active: 11.2 µM	
CCc1ccc(Nc2n[n+](-c3ccccc3)c(-c3cccc(C)c3)s2)cc1	inconclusive: 31.6 µM [inhibitor, single point]	
CCn1c(C2CC(=O)N(c3ccc(C)c(C)c3)C2)nc2ccccc21 (stereo unspecified)		inactive: -29.3%
O=C(NCc1ccco1)c1nc2c(nnn2Cc2cccc(Cl)c2)c(=O)[nH]1	inconclusive: 35.5 µM [inhibitor, single point]	
O=C(CSc1nnc2ccc(-c3ccccn3)nn12)N1CCCC1	inconclusive: 1.26 µM [inhibitor, partial curve, poor fit]	
CCC(c1nnnn1Cc1ccc(F)cc1)N(CCCO)Cc1cc2cc3c(cc2[nH]c1=O)OCO3 (stereo unspecified)	inconclusive: 22.4 µM [inhibitor, single point]	
C/C(CCc1oc2ccc(Br)cc2c1-c1ccc(C)o1)=N/O	inconclusive: 6.31 µM [inhibitor, single point]	
Cc1ccc2sc(N(CCCN(C)C)C(=O)CCS(=O)(=O)c3ccccc3)nc2c1C	active: 5.62 µM	
O=C(C1COc2cc(S(=O)(=O)Nc3ccc(Cl)cc3)ccc2O1)N1CCCC1 (stereo unspecified)	inconclusive: 8.91 µM [inhibitor, partial curve, poor fit]	
CCOC(=O)c1nc(C)sc1-c1ccnn1S(=O)(=O)c1ccc(Cl)cc1Cl	inconclusive: 7.08 µM [inhibitor, full curve]	
CCN(CC(=O)Nc1ccccc1C(F)(F)F)C(=O)c1ccccc1Sc1ccccc1C#N	inconclusive: 25.1 µM [inhibitor, single point]	

Compound	Potency	activity, negative = inhibition
CCOC(=O)c1ccc(NC(=O)CSc2nc3cccnc3n2C)cc1	inconclusive: 6.31 µM [inhibitor, single point]	
CC(C)c1ccc(CN2CCC(Oc3ccc(C(=O)N4CCCC4)cc3)CC2)cc1	inconclusive: 35.5 µM [inhibitor, partial curve, poor fit]	
COCCNC(=O)C1(C)CCCN(C(=O)c2ccc(C#N)cc2)C1 (stereo unspecified)		inactive: 21.8%
Cc1ccc(N(Cc2ccccc2)C(=O)c2cc(S(=O)(=O)N3CCOCC3)ccc2F)cc1		inactive: -9.43%
Cc1ccccc1NC(=O)c1sc(Cl)nc1C		inactive: 9.52%
CCC(=O)Nc1ccc(C(=O)COC(=O)c2nc3nccc(C)n3n2)cc1		inactive: -1.02%
S=C(NCc1ccco1)Nc1ccccc1Cl		inactive: -4.83%
Oc1ccc(/C=N/Nc2nc(-c3cccnc3)nc3ccccc23)c(O)c1	inconclusive: 31.6 µM [inhibitor, single point]	
CCCCN(C(=O)CSc1cc(C)c2ccccc2n1)c1c(N)n(Cc2ccccc2)c(=O)[nH]c1=O	inconclusive: 4.47 µM [inhibitor, full curve, poor fit]	
O=c1cc(CN2CCN(c3ccccc3)CC2)c2c(ccc3ccccc32)o1		inactive: -21.4%
COCCCNC(=S)N1CCN(c2nc(C)nc3sc4c(c23)CCCC4)CC1	inconclusive: 31.6 µM [inhibitor, single point]	
O=C(Nn1nnnc1Nc1ccccc1)C12CC3CC(CC(C3)C1)C2	inconclusive: 35.5 µM [inhibitor, single point]	
CCC(=O)N1CCc2cc(S(=O)(=O)NC(Cc3ccccc3)C(=O)Nc3ccc(Cl)cc3)ccc21 (stereo unspecified)	inconclusive: 17.8 µM [inhibitor, partial curve, poor fit]	
COc1ccccc1C(=O)N1CCC(c2c[nH]c3ccccc23)(c2c[nH]c3ccccc23)CC1	inconclusive: 15.8 µM [inhibitor, partial curve, poor fit]	
O=C(CSc1nc(-c2ccccc2)[nH]c1-c1ccc(F)cc1)NC1CCCC1	inconclusive: 15.8 µM [inhibitor, single point]	
CC(C)c1ccc(S(=O)(=O)Nc2cc3c(cc2NCc2ccccc2)n(C)c(=O)n3C)cc1	inconclusive: 10 µM [inhibitor, partial curve, poor fit]	
O=C(O)C/C(=C\c1cc(Br)cs1)c1nc2ccccc2o1	inconclusive: 3.55 µM [inhibitor, single point]	
CCc1ccc(Sc2cc(C(=O)NCCN3CCOCC3)c3ccccc3n2)cc1		inactive: -3.16%
O=C(Nc1cccc(Br)c1)c1cccc(OC(=S)N2CCOCC2)c1	inconclusive: 12.6 µM [inhibitor, single point]	
CCc1nc(Sc2nc(C)cc(C)n2)c2oc3ccccc3c2n1	inconclusive: 1.12 µM [inhibitor, full curve, poor fit]	
COc1ccc(/C=N/NC(=O)c2ccoc2C)cc1COc1c(C)cccc1C		inactive: -15.7%
COc1c(C)cccc1C(=O)Nc1ccc(OCC(=O)N2CCOCC2)cc1C		inactive: -10.4%

Compound	Potency	activity, negative = inhibition
O=C(NCCc1ccc(Cl)cc1)c1cc(-c2ccccn2)nc2ccccc12	inconclusive: 3.16 µM [inhibitor, partial curve]	
Cc1ccc(S(=O)(=O)N(C)CCCC(=O)Nc2ccc(C)cc2C)cc1	inconclusive: 3.98 µM [inhibitor, full curve, poor fit]	
CCC/C=C/c1ccc(CN2C(CC(C)C)C(=O)N(Cc3cn(CC4CCCCC4)nn3)CCS2(=O)=O)cc1 (stereo unspecified)	inconclusive: 35.5 µM [inhibitor, single point]	
Cc1cccc(C(=O)Nc2nc3c(s2)CCCC3)c1	inconclusive: 6.31 µM [inhibitor, single point]	
NC(=S)N/N=C/c1ccc(-c2ccc(Cl)c(Cl)c2)o1	inconclusive: 14.1 µM [inhibitor, single point]	
O=C(NNc1ccc([N+](=O)[O-])cc1)C1CC1c1ccccc1 (stereo unspecified)	inconclusive: 5.01 µM [inhibitor, full curve]	
CC(C)n1cnc2c(NCc3ccccc3)cc(N[C@H](C)CO)cc21	inconclusive: 0.891 µM [inhibitor, full curve]	
O=C(NC1CC(=O)N(c2ccccc2)C1)c1cccs1 (stereo unspecified)		inactive: 2.07%
COc1ccc2ccccc2c1CN1CCN(Cc2ccccc2)CC1	inconclusive: 8.91 µM [inhibitor, single point]	
Cc1ccc(-c2csc(N3CCN(c4cc5c(cc4Cl)nc(-c4ccncc4)n5CCOCCO)CC3)n2)cc1	inconclusive: 11.2 µM [inhibitor, partial curve, poor fit]	
Cc1ccc(C(=O)N2CCC(C(=O)c3ccc(F)cc3)CC2)cc1		inactive: -26.9%
O=C(N/N=C/c1ccc(-c2ccc([N+](=O)[O-])cc2)o1)C(O)c1ccccc1 (stereo unspecified)		inactive: -20.1%
COc1ccc(C=C2C=C(C(C)(C)C)C(=O)C(C(C)(C)C)=C2)cc1OC	inconclusive: 15.8 µM [inhibitor, single point]	
COc1cccc(/C=N/n2nnc3c(cnn3-c3ccccc3)c2=O)c1	inconclusive: 35.5 µM [inhibitor, single point]	
Cn1c(SCC(=O)Nc2ccccc2-c2ccccc2)nnc1-c1ccco1		inactive: -2.17%
O=C(NCc1ccccc1)C12CN(Cc3ccccc3)CC1C(c1ccc([N+](=O)[O-])cc1)=NO2 (stereo unspecified)	inconclusive: 5.62 µM [inhibitor, single point]	
CCc1ccc(N2CCN(C(=O)c3ccc(OC)c(OC)c3)CC2)cc1	inconclusive: 12.6 µM [inhibitor, partial curve]	
CCOc1ccc(-n2c(SCC(=O)Nc3nccs3)nnc2-c2ccoc2C)cc1	inconclusive: 22.4 µM [inhibitor, single point]	
CCN(CC)S(=O)(=O)c1ccc(O)c(NC(=O)COc2ccc(S(=O)(=O)N3CCOCC3)cc2)c1	inconclusive: 8.91 µM [inhibitor, partial curve, poor fit]	
CN(C(=S)NC(=O)c1ccccc1Br)C1CCCCC1	inconclusive: 4.47 µM [inhibitor, full curve]	
Cc1ccc(O)c(CNc2ccc(S(=O)(=O)Nc3nccs3)cc2)c1	inconclusive: 35.5 µM [inhibitor, single point]	
CN1C(=O)c2ccccc2Sc2ccc(NC(=O)NCc3ccccc3Br)cc21	inconclusive: 35.5 µM [inhibitor, single point]	
